Data published in article PMC4336329 (PLoS ONE, 2015).
Out of some 310,000 compounds screened, about 2,200 (0.71%) showed an effect of 50% or more. Effects have a minus sign here. Some of the results follow.

Each molecule was assayed against human ether-à-go-go-related gene (hERG) potassium channel (human, UniProt Q12809) (assay: primary screen, population patch clamp on CHO cells stably expressing hERG).
human ether-à-go-go-related gene (hERG) potassium channel, sequence (Q12809 whole entry, looked up): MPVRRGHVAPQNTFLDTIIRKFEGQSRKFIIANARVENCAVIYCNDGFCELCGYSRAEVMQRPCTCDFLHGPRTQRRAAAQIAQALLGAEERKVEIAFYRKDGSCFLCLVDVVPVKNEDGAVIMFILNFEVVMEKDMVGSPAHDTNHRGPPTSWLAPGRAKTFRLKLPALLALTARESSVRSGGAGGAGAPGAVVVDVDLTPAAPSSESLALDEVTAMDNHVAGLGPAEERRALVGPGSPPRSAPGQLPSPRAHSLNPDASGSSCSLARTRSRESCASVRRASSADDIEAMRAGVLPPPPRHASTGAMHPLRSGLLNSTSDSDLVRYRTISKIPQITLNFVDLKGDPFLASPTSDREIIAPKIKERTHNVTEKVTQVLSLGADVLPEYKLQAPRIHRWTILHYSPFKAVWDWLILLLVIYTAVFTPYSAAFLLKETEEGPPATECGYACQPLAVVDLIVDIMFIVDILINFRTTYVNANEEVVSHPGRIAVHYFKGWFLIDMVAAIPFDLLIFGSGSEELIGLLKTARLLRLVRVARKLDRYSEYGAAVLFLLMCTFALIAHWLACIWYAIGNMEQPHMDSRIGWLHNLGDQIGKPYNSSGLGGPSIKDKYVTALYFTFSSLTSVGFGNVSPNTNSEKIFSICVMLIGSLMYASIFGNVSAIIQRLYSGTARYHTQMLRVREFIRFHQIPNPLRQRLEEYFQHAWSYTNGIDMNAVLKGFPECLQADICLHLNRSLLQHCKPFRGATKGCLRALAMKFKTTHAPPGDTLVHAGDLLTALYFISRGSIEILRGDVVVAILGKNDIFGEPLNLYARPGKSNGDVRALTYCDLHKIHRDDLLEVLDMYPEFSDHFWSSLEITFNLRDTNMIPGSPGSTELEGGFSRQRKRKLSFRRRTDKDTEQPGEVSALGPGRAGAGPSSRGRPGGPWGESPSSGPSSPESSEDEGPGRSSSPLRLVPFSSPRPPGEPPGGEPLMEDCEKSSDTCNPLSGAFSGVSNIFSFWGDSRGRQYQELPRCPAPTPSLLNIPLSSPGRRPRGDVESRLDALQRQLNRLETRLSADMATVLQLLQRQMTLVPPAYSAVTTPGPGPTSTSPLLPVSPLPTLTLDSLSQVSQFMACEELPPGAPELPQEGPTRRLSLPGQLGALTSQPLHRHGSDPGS

Row | SMILES | hERG current change (%, negative = inhibition) at 1uM
1 | Cc1cc(=O)oc2cc(OCc3cc4c(cc3Cl)OCO4)ccc12 | 9.07%
2 | Cc1cnc(C(=O)OCC(=O)Nc2sc3c(c2C(N)=O)CCCC3)cn1 | 10.3%
3 | CC1CCCN(C(=O)COC(=O)C2CCN(S(=O)(=O)c3ccc4c(c3)OCCO4)CC2)C1 (centres unmarked) | -0.0808%
4 | O=C(NCCN1CCOCC1)c1ccc(Cl)c(Cl)c1 | 12.1%
5 | O=C(CCc1c[nH]c2ccccc12)N1CCN(S(=O)(=O)c2ccccc2)CC1 | 0.842%
6 | C#CCNC(=O)C1=C[C@@H](C)C[C@@H](OCc2ccc(CO)cc2)O1 | 14.5%
7 | Cc1ccc(CC2C(=O)N(c3ncccn3)C(=O)C2C)cc1 (centres unmarked) | 14.4%
8 | O=C(Nc1ccccc1)c1cc2n(n1)C(C(F)(F)F)CC(C1CC1)N2 (centres unmarked) | 1.94%
9 | Cc1c(CC(=O)N2CCC(C(N)=O)CC2)c(=O)oc2cc3c(cc12)CCC1(CCCCC1)O3 | 8.44%
10 | O=C(COc1ccc(S(=O)(=O)Nc2ccccc2)cc1)NCc1cccnc1 | 12.9%
11 | Cn1c(SCC(=O)NC2CCS(=O)(=O)C2)nnc1-c1ccco1 (centres unmarked) | 10.3%
12 | O=C1CSC(c2cccs2)N1c1ccccc1 (centres unmarked) | 12.2%
13 | COc1cccc(CNC(=O)Cc2ccc(-c3ccccc3)cc2)c1 | 11.3%
14 | CCOc1ccc(/C=C2\SC(=S)N(N3C(=O)C4CC4C3=O)C2=O)cc1 (centres unmarked) | 1.67%
15 | Cc1cc(NC(=O)CCC(=O)N(c2ccc(F)cc2)C(C(=O)NC2CCCC2)c2ccncc2)no1 (centres unmarked) | 21.3%
16 | O=C(COC(=O)C1(c2cccc(F)c2)CCCC1)NCc1cccs1 | 13.9%
17 | CCOC(=O)/C(C#N)=C\c1ccco1 | 13%
18 | CCCC(=O)Nc1nn(C)c2nc3ccc(C)cc3cc12 | 15.4%
19 | COc1cnn(C(C)(C)C)c(=O)c1Cl | 13.8%
20 | O=C(COC(=O)c1nsc(Cl)c1Cl)NC1CCCCC1 | 14.1%
21 | CCC1CCC(N2CCN(c3ccc([N+](=O)[O-])cc3)CC2)CC1 (centres unmarked) | -74.5%
22 | CCCN1CCC(NC(=O)CCc2nnc(-c3ccccc3)o2)CC1 | 0.295%
23 | Cc1oc(/C=N/NC(=O)CN(c2ccccc2Br)S(C)(=O)=O)cc1Br | 8.91%

Row | SMILES | hERG current change (%, negative = inhibition) at 1uM
24 | Cn1c(=O)n(Cc2ccccc2)c2ccccc21 | 9.25%
25 | Cc1cccc(NC(=O)C(=O)NCC2CCCO2)c1 (centres unmarked) | 13.7%
26 | Cc1ccc(Nc2nc(COC(=O)C3CC3)cs2)cc1 | 11.1%
27 | CCOC(=O)C1CCN(C2=NC(=O)/C(=C/c3ccc(OC)c(OC)c3)S2)CC1 | 9.87%
28 | Cc1c(O)ccc(C(=O)CN2C(=O)c3ccccc3C2=O)c1O | 16.4%
29 | O=C1C(=C2CCCCC2)SC(=S)N1Cc1ccco1 | -0.779%
30 | Cc1cc(N2CCN(C)CC2)nc(-c2ccccc2O)n1 | -0.898%
31 | COc1ccc(-c2nnn(Cc3nc(N)nc(N4CCOCC4)n3)n2)cc1OC | 3.65%
32 | CCCC(=O)Nc1sc(C)c(-c2ccc(OC)cc2)c1C#N | 11.4%
33 | CCCCN=C1SC(C(=O)Nc2sc3c(c2C(=O)OC)CCC3)C(N)=C1C(=O)N1CCOCC1 (centres unmarked) | -0.508%
34 | COc1cc(/C=C2/C(=O)ON=C2C)cc(Cl)c1O | 10.5%
35 | CC(=O)c1ccc(OC(=O)C2c3ccccc3Oc3ccccc32)cc1 | 7.66%
36 | CCN(c1ccccc1)S(=O)(=O)c1cccc(C(=O)O)c1 | 6.99%
37 | COc1ccc(N2CCN(CC(=O)N3c4ccccc4CC3C)CC2)cc1.O=C(O)C(=O)O (centres unmarked) | -10.7%
38 | O=C(NNc1c(F)c(F)cc(F)c1F)c1ccc(Cl)nc1 | 23.7%
39 | CC/C(=N\NC(=O)c1nnn(-c2nonc2N)c1CN(C)c1ccccc1)c1ccccc1 | 13.4%
40 | CCC(=O)c1cn(CCOc2ccccc2OC)c2ccccc12 | 17.7%
41 | CNC(=O)CS(=O)CC(=O)Nc1cc(OC(C)C)c(Cl)cc1Cl (centres unmarked) | 13.3%
42 | CCc1sc(C(=O)Nc2cccc(-n3cnnn3)c2)cc1C | 2.55%
43 | O=C(COC(=O)c1ccncc1)Nc1ccccc1 | 9.42%
44 | Cc1ccc(N(CC(=O)NCC2CCCO2)C(=O)CCC(=O)Nc2cc(C)on2)cc1 (centres unmarked) | 17.9%
45 | NC(=O)c1c(NC(NC(=O)c2ccco2)C(=O)c2ccc(Cl)cc2)sc2c1CCCC2 (centres unmarked) | 7.66%
46 | COc1ccc(C2CC(c3cccs3)=NN2C(=O)CSc2nc(=O)n3ccccc3n2)cc1 (centres unmarked) | -11.7%

Row | SMILES | hERG current change (%, negative = inhibition) at 1uM
47 | C=Cn1cc[n+](CC(=O)C(C)(C)C)c1.[Br-] | 15.7%
48 | C=CCn1c(CNC(=O)c2ccco2)nnc1SCC(=O)Nc1cccc(Br)c1 | -14.6%
49 | CCN(CC)C(=O)c1ccc(Nc2nnc(-c3ccc(O)cc3)c3ccccc23)cc1 | 17%
50 | Cc1cc2occ(CC(=O)NC3CCCc4ccccc43)c2cc1C (centres unmarked) | 5.04%
51 | Cn1c(N2CCCCC2)nc2c1c(=O)[nH]c(=O)n2C | -2.9%
52 | O=C(Nc1ccc(Cl)c(S(=O)(=O)N2CCOCC2)c1)c1cn2ccccc2n1 | 12.6%
53 | CN(C(=O)c1ccc(NC(=O)Cc2cccc([N+](=O)[O-])c2)cc1)C1CC1 | 15.7%
54 | CCOC(=O)c1c(C)[nH]c(C(=O)COC(=O)C(C)N2C(=O)C3CCCCC3C2=O)c1C (centres unmarked) | 8.24%
55 | O=C(CC1C(=O)NCCN1Cc1ccc(Cl)c(F)c1)NCC1CCOCC1 (centres unmarked) | 10.8%
56 | CCOC(=O)C1CCCN(C(=O)CSc2ccc(NC(C)=O)cc2)C1 (centres unmarked) | 8.95%
57 | Nc1nc(-c2ccc(Cl)cc2)c(N=Nc2ccc(S(=O)(=O)N3CCOCC3)cc2)s1 | 0.0157%
58 | O=C(C1CCN(Cc2ccc(Cl)cc2)CC1)N1CCN(C(c2ccccc2)c2ccccc2)CC1 | 11%
59 | COc1cccc(N2CCN(c3ccc4nnc(CCC(=O)Nc5ncccc5C)n4n3)CC2)c1 | 9.78%
60 | CC(C)CCC(CC(C)O)C(=O)NNC(=S)Nc1ccccc1 (centres unmarked) | 9.01%
61 | O=[N+]([O-])c1ccccc1Oc1ncccc1[N+](=O)[O-] | 21%
62 | COc1ccccc1C(=O)NCCCCNC(=O)c1ccccc1OC | 9.03%
63 | Cc1cccc(C)c1NC(=O)CS(=O)CC(=O)NC1CCN(Cc2ccccc2)CC1 (centres unmarked) | 7.87%
64 | CCOc1ccc(NC(=S)N2C3CCCC2CC(NC(=O)C2CC2)C3)cc1 (centres unmarked) | 3.39%
65 | Cc1cccc(-c2cc3nc(C)cc(NCCCN(C)C)n3n2)c1 | 1.77%
66 | CC(=O)c1cc(F)c(N2CCN(C(=O)Cc3ccccc3)CC2)cc1C | 4.07%
67 | Cc1cc(C)n(C(C)CC(=O)Nc2ccc3c(c2)OCCO3)n1 (centres unmarked) | -1.68%
68 | CC(CCC(=O)O)C1CCC2C3C(O)CC4CC(O)CCC4(C)C3CC(O)C12C (centres unmarked) | 14.6%
69 | OCc1nnn(-c2ccccc2)c1CO | 12.4%

Row | SMILES | hERG current change (%, negative = inhibition) at 1uM
70 | Cc1ccccc1-c1cc(C(=O)N2CCCC2)c2ccccc2n1 | -19.6%
71 | COc1cccc(CNC(=O)c2nnn(CC(=O)Nc3cc(Cl)ccc3C)c2N)c1 | 11.1%
72 | O=C(Nc1sc2c(c1C(=O)NCCCO)CCCC2)c1ccccc1 | 11.2%
73 | Cc1cc(C)cc(NC(=O)NNC(=O)c2cc3occc3[nH]2)c1 | 5.1%
74 | Nc1ccccc1Nc1nc2ccccc2[nH]1 | 1.82%
75 | CC(C)(C)OC(=O)n1cc(CCO)c2ccccc21 | 11.1%
76 | COC(=O)c1ccc2c(=O)n(CCN3CCOCC3)c(SCC(=O)C(C)(C)C)nc2c1 | -14.2%
77 | COC(=O)C1=C(N)Oc2cc(C)[nH]c(=O)c2C1c1cccnc1 (centres unmarked) | 17.5%
78 | Cc1ccc(OCCOc2ccc(S(=O)(=O)N3CCCC3)cc2C(N)=O)cc1 | 3.42%
79 | CC(C)N(C)Cc1nnnn1CC(=O)NCc1cc(F)cc(C(F)(F)F)c1 | 8.5%
80 | CCOC(=O)c1c(NC(=O)c2cc(C)on2)c2cc([N+](=O)[O-])ccc2n1C | 17.4%
81 | CCC(C)[C@H](NC(=O)C1CC(=O)N(c2ccc(OC)cc2)C1)C(=O)N1CCCCC1 (some centres unmarked) | 13.5%
82 | O=C(c1ccc(Cl)cc1)N1CCCCC(Sc2nnc(-c3ccc4c(c3)OCO4)o2)C1=O (centres unmarked) | 16.5%
83 | COc1ccc2c(c1)CCc1c(C(=O)N3CC4(C)CC3CC(C)(C)C4)noc1-2 (centres unmarked) | -8.3%
84 | Cc1c(C(=O)N(C)c2ccccc2Cl)cnn1-c1ccccc1 | 7.2%
85 | CC(C)Cc1nc(SCC(=O)NCc2ccccc2)n[nH]1 | 10.8%
86 | O=C(CC1C(=O)NCCN1Cc1ccc(F)cc1Cl)NCc1ccon1 (centres unmarked) | 17.1%
87 | Cc1cc([N+](=O)[O-])nn1CC(=O)N1c2ccccc2CC1C (centres unmarked) | 8.06%
88 | c1cncc(-c2nc(-c3ccc4c(c3)OCO4)cs2)c1 | 17.3%
89 | O=c1[nH]cc(S(=O)(=O)NCc2ccccc2)c(=O)[nH]1 | 17.4%
